The campaign covered roughly 310,000 compounds. About 14,000 (4.5%) showed an effect of 50% or more. Effects have a minus sign here. This is one part of the list.
These compounds were tested against human ether-à-go-go-related gene (hERG) potassium channel (human, UniProt Q12809) (assay: primary screen, population patch clamp on CHO cells stably expressing hERG).
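Also: peak tail current of the secondary pulse compared with the same well before compound.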

Chain of human ether-à-go-go-related gene (hERG) potassium channel (Q12809 whole entry, looked up): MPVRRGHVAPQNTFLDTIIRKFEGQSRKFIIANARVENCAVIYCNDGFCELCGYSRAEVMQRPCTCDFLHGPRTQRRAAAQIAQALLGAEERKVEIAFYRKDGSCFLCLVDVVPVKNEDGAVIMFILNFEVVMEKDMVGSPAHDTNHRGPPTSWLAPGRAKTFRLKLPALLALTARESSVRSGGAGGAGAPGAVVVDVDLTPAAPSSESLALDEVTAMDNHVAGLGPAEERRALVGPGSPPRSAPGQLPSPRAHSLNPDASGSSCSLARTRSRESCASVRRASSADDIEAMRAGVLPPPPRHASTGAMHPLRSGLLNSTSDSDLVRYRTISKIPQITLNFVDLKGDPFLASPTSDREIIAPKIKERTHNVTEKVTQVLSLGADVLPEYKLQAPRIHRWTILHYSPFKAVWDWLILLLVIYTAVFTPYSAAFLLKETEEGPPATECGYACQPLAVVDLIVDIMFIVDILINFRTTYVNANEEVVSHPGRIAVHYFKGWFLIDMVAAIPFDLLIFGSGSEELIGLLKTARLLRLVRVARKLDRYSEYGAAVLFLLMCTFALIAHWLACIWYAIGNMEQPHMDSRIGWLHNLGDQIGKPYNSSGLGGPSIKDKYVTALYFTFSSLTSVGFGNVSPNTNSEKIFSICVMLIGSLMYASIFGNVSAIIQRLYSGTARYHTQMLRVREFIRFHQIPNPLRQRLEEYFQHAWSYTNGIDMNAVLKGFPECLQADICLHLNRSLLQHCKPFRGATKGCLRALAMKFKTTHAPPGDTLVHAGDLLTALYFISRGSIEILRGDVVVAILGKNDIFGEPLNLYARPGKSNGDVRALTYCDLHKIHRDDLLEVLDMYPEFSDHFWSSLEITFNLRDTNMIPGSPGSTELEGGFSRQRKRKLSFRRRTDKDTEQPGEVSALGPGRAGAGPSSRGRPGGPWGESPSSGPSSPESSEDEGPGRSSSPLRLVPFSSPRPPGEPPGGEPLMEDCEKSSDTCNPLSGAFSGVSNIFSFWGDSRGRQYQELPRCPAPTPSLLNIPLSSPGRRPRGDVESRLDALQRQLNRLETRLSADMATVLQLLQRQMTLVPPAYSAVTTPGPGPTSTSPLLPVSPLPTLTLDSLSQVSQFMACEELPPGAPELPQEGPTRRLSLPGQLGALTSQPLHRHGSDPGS

Compound	hERG current change (%, negative = inhibition) at 10uM
CC(C)(C)NC(=S)NCC1CC1	5.86%
O=S1(=O)CCC(NS(=O)(=O)c2cccc3cccnc23)C1 (stereo not shown)	8.74%
O=C(c1ccco1)N(Cc1ccc2c(c1)OCO2)Cc1cc2cc3c(cc2[nH]c1=O)OCO3	-5.94%
CCOC(=O)c1cnc2c(N=Nc3ccccc3)c(N)nn2c1N	22.7%
CC1CCC(NC(=O)c2ccc3snnc3c2)CC1 (stereo not shown)	21.3%
CCCOc1ccc(NC(=O)C2CC(=O)N/C(=N/N=C(C)/C=C/c3ccc(N(C)C)cc3)S2)cc1 (stereo not shown)	24.4%
CCC1(c2ccc(F)cc2)NC(=O)N(CC(=O)N2c3ccccc3CC2C)C1=O (stereo not shown)	-12.9%
COc1ccc(S(=O)(=O)N2CCCC2C(=O)NCc2cccs2)cc1 (stereo not shown)	-2.41%
COC(=O)Cc1csc(NCc2ccccc2)n1	7.78%
Clc1ccc(Nc2nc(NCCN3CCOCC3)nc(N3CCOCC3)n2)cc1	-56%
CCc1ccc(S(=O)(=O)NCc2cccnc2)cc1	17.8%
CCN1CCN(C(=O)c2nn(C)c3c2CS(=O)(=O)c2ccccc2-3)CC1	12%
CCCOC(=O)CCCCC1SCC(NC(=O)OC)C1NC(=O)OC (stereo not shown)	-8.07%
Nc1nonc1-n1nnc(C(=O)N/N=C/c2ccc(Cl)cc2Cl)c1CN1CCCC1	19.1%
COC(=O)C1=C(c2ccc(-c3ccccc3)c(F)c2)C[C@@H]2CC[C@H]1N2C(=O)N1CCc2cc(OC)c(OC)cc2C1	17.9%
COc1ccc(CCn2c(NN=C3CCCCC3)nc3c2c(=O)[nH]c(=O)n3C)cc1	0.199%
Cc1cccc(NC(=S)NC(=O)CCc2ccccc2)c1C	8.45%
COc1ccc(/C=C2/C(=O)N(CC3CCCO3)C(=S)N2C)c(OC)c1 (stereo not shown)	-16.9%
O=C(N/N=C/c1cccnc1)C(O)(c1ccccc1)c1ccccc1	-0.565%
CSc1cccc(NC(=O)c2cccc3cccnc23)c1	-1.48%
O=C1CCN(S(=O)(=O)c2cccs2)c2ccc(C(F)(F)F)cc2N1	5.03%
CCOC(=O)CC(/C(C)=N\O)c1ccccc1 (stereo not shown)	9.47%
COc1ccc(CCNC(=O)COc2ccccc2[N+](=O)[O-])cc1OC	11.5%
CC(NC(=S)NC1CCC(C(C)(C)C)CC1)c1ccccc1 (stereo not shown)	23.4%
CC(C)c1ccc(-c2csc3ncnc(N4CCN(C)CC4)c23)cc1	-21.6%
